Laboratory results published in publication PMC4336329 (PLoS ONE, 2015).
About 2,200 (0.71%) of roughly 310,000 compounds showed an effect of 50% or more. Effects have a minus sign here. The list shows a part of the results.

Target: human ether-à-go-go-related gene (hERG) potassium channel (human, UniProt Q12809)
Test: primary screen, population patch clamp on CHO cells stably expressing hERG

Sequence of human ether-à-go-go-related gene (hERG) potassium channel (Q12809 whole entry, looked up): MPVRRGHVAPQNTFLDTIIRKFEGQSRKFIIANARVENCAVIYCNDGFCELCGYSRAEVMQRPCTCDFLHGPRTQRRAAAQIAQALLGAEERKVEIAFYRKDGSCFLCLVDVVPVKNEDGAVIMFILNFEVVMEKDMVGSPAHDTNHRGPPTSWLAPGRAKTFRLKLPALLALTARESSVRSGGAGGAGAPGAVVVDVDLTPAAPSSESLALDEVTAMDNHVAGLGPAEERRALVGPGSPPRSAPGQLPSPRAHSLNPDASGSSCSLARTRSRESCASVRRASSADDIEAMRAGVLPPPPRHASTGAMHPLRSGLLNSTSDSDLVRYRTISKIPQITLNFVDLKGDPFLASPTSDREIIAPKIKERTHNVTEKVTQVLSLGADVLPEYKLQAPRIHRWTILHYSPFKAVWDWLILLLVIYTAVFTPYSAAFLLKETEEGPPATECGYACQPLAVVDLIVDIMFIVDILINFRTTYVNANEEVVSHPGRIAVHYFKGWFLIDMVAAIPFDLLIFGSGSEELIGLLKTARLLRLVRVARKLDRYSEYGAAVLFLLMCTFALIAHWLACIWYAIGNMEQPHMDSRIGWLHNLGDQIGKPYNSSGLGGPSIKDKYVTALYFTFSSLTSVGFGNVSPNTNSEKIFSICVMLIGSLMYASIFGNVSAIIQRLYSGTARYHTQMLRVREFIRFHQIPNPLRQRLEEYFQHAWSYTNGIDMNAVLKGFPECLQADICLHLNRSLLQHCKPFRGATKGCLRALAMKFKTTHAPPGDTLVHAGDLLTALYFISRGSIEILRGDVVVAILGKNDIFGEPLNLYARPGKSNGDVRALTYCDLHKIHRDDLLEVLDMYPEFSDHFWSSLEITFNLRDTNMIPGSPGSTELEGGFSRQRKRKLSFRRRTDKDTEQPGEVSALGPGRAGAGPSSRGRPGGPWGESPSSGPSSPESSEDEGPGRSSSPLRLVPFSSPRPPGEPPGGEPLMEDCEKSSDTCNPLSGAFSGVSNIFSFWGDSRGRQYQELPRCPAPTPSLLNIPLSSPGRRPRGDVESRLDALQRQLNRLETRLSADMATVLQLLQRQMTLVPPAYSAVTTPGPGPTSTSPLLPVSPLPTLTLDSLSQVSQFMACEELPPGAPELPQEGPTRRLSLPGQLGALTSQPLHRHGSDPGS

| Structure (SMILES) | hERG current change (%, negative = inhibition) at 1uM [%] |
| --- | --- |
| O=C(CCCc1ccccc1)Nc1ccnn1C1CCN(Cc2ccccc2)CC1 | -18.8 |
| O=C(NCCOc1ccc(Cl)cc1)C1CCCCC1 | 10.9 |
| Cc1cc(C)c2oc(C(=O)Nc3ccc(S(=O)(=O)Nc4nccs4)cc3)cc(=O)c2c1 | 12.2 |
| CCOc1ccc(Nc2ncnc(N)n2)cc1 | 6.01 |
| O=c1nc2cccc3c2=c(/c1=C(\O)c1ccccc1)c1ccccc1c3=O | 17.5 |
| COCCCC1CCN(C(=O)CCc2nnc(CCCCc3ccccc3)o2)CC1 | 3.1 |
| CCc1nc(N2CCOCC2)c(C#N)c2c1CCCC2 | 4.28 |
| CCOC(=O)c1ccc(NC(=O)CSc2nnc(C3CC3)n2CC)cc1 | 9.08 |
| O=C(COc1ccc(Br)cc1Cl)Nn1cnnc1 | 12.7 |
| COc1ccc(N2CC(C(=O)NCCN3C(=O)S/C(=C\c4cccnc4)C3=O)CC2=O)c(OC)c1 (centres unmarked) | 5.51 |
| CS(=O)(=O)c1ccc(CNC(=O)C2(C(F)(F)F)CC(CCCO)CCCO2)cc1 (centres unmarked) | 5.06 |
| Cc1ccc(-n2c(SCC(=O)Nc3nccs3)nc3c(c2=O)SCC3)cc1 | 11 |
| O=C(C1CC(c2ccc(F)cc2)=NO1)N1CCC2(CC1)OCCO2 (centres unmarked) | -0.18 |
| Cc1cc2ccccn2c1C(=S)NC(=O)c1ccccc1 | 5.71 |
| CN(C)S(=O)(=O)N(CC(=O)Nc1ccccc1F)c1ccccc1 | 3.07 |
| COc1ccc(-c2cc(-c3nnc(COC(=O)CC4CC5CCC4C5)o3)c3ccccc3n2)cc1OC (centres unmarked) | 7.43 |
| CCCNc1nc(OC)nc(N2CC3CC(C2)c2cccc(=O)n2C3)n1 (centres unmarked) | 7.46 |
| CC(C)c1ccc(NC2CCCN(C(=O)c3cccnc3)C2)cc1 (centres unmarked) | 5.91 |
| COC(=O)c1[nH]c2cccc(C)c2c1NC(=O)CN1CCN(C(=O)c2ccco2)CC1 | 4.59 |
| CCOC(=O)c1ccc(NC(=O)COc2cc3oc(=O)c(CC(C)O)c(C)c3cc2Cl)cc1 (centres unmarked) | 14.5 |
| Cc1c(Cl)cccc1NC(=O)Cn1c(CCC(=O)O)ccc1-c1ccccc1 | 15.7 |
| COc1ccc(OC)c(NC(=O)NNC(=O)COc2ccc(F)cc2F)c1 | 52.6 |

| Structure (SMILES) | hERG current change (%, negative = inhibition) at 1uM [%] |
| --- | --- |
| CCCc1nn(C)c2c(=O)[nH]c(-c3cc(S(=O)(=O)Nc4ccc(NC(C)=O)cc4)ccc3OCC)nc12 | 0.706 |
| Nc1cc2c(cc1C(=O)c1ccccc1)OCCO2 | -1.86 |
| CCCCCOC(=O)c1ccccc1C(=O)O | 10.8 |
| O=C(COC(=O)Cc1ccc(S(=O)(=O)N2CCOCC2)s1)Nc1ccc([N+](=O)[O-])cc1 | 4.97 |
| Cc1cc(=O)c2cc(C(=O)c3ccccc3)ccc2[nH]1 | 6.79 |
| O=C(CSc1nnnn1-c1ccccc1)N1CCNC1=O | 0.938 |
| CCN(CC(=O)Nc1ccc(NC(C)=O)cc1)C(=O)C(c1ccccc1)c1ccccc1 | 6.64 |
| COc1ccc(OC)c(CCNC(=O)Cc2ccc(NC3=NC4CS(=O)(=O)CC4S3)cc2)c1 (centres unmarked) | 8.86 |
| CCCCNC(=O)CCN1N=C(c2ccccc2)CCC1=O | 5.08 |
| O=C(NCc1ccc2[nH]c3c(c2c1)CCCC3)c1ccc(S(=O)(=O)N2CCCC2)cc1 | 12 |
| O=C(NCCN1CCOCC1)C1CCC(CNS(=O)(=O)c2ccc(Cl)cc2)CC1 (centres unmarked) | 10.2 |
| COc1ccccc1NC(=O)C1CCN(c2ncccn2)CC1 | 3.1 |
| O=[N+]([O-])c1cnc(Nc2ccccc2)nc1Nc1ccccc1 | 11.6 |
| c1ccc(C2=Nc3cccc4cccc(c34)N2)cc1 | 16.7 |
| Cc1cc(C)n(-c2ccc(C(=O)NCc3ccc4c(c3)OCO4)cc2)n1 | 6.48 |
| O=C(Nc1cc(-c2nn(CC(=O)N3CCCCC3)c(=O)c3ccccc23)ccc1N1CCOCC1)c1ccc(Cl)cc1 | 0.79 |
| COC(=O)C(=N/Nc1ccccc1C(=O)OC)/C(C)=N/O | 29.4 |
| CCc1cc2ccc(C)c(C)c2nc1SCC(=O)Nc1cc(C)on1 | 13.4 |
| CCOC(=O)/C=c1\sc2n(c1=O)CCN=2 | 12.3 |
| COC(=O)C(Cc1ccccc1)NS(=O)(=O)c1ccccc1Br (centres unmarked) | 7.84 |
| COCCCNc1nnc(Cc2ccc(Cl)cc2)c(=O)[nH]1 | 13.3 |
| Nc1c(C(=O)c2ccc(F)cc2)oc2ccccc12 | 13 |
